In article PMC4336329 (PLoS ONE, 2015):
Among all 310,000 compounds or so, about 14,000 (4.5%) showed an effect of 50% or more. Effects have a minus sign here. This is one part of the list.

molecular target: human ether-à-go-go-related gene (hERG) potassium channel (human, UniProt Q12809); experiment: primary screen, population patch clamp on CHO cells stably expressing hERG
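Further: peak tail current of the secondary pulse compared with the same well before compound.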

human ether-à-go-go-related gene (hERG) potassium channel, sequence (Q12809 whole entry, looked up): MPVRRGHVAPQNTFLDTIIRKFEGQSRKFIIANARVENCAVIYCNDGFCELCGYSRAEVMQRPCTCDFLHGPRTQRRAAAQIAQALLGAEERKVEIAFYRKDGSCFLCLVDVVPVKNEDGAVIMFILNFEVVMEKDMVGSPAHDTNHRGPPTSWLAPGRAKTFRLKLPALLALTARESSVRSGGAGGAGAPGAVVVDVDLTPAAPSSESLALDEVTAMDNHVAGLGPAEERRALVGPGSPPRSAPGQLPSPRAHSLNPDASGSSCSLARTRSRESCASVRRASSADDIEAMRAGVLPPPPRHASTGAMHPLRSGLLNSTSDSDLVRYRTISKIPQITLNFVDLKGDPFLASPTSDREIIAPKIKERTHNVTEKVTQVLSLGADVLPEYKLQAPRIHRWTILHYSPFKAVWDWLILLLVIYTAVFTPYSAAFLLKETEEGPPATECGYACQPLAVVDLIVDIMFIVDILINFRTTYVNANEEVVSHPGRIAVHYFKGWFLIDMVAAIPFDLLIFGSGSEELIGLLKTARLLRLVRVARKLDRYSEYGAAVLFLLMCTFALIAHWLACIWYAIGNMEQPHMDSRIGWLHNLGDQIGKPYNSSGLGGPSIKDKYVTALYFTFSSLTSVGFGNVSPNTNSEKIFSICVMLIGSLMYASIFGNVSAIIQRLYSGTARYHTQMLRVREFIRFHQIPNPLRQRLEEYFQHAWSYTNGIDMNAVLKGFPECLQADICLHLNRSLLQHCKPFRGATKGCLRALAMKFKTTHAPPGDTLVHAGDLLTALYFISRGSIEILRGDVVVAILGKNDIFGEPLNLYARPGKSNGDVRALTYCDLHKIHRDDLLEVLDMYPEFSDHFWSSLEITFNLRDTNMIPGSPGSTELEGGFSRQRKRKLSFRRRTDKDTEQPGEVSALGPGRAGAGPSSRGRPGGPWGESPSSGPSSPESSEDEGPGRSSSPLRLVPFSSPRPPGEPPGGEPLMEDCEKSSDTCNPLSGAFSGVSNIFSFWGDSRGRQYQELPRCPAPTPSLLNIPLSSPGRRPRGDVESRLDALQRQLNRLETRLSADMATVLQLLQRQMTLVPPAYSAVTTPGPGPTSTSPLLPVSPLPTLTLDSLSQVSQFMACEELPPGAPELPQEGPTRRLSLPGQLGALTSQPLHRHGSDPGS

Row | Compound | hERG current change (%, negative = inhibition) at 10uM [%]
1 | CC(C)=CCSc1nnc([C@@H](NC(=O)OC(C)(C)C)C(C)C)o1 | -17.3
2 | COc1ccc(S(=O)(=O)N2CCC(C(=O)N[C@H](C(=O)NCc3ccncc3)C(C)C)CC2)cc1 | 14.5
3 | O=C(CN1CCOCC1)Nc1ccc2c(c1)OC(F)(F)O2 | 1.72
4 | CCCCn1c(N)c(N(CC)C(=O)CCNC(=O)NC23CC4CC(CC(C4)C2)C3)c(=O)[nH]c1=O | 8.45
5 | CC(=O)C(=Cc1cc(C)n(-c2ccccc2)c1C)C(C)=O | 11.4
6 | CC(C)(O)CC[C@@H](O)[C@](C)(O)[C@H]1CC[C@@]2(O)C3=CC(=O)[C@@H]4C[C@@H](O)[C@@H](O)C[C@]4(C)[C@H]3CC[C@]12C | 20.4
7 | CC1CCCC(NC(=O)COC(=O)c2cc(S(=O)(=O)N3CCOCC3)ccc2F)C1C (centres unmarked) | 9.77
8 | O=S1(=O)C=C(SCCN2CCCC2)c2ccccc21 | -16.4
9 | O=c1cc(N2CCCCC2)c(-c2ccccc2)nn1Cc1cccc(F)c1 | -37.4
10 | O=C(c1ccc(F)cc1)c1cnc(Nc2ccccc2)s1 | 33
11 | Cc1c(C(=O)O)sc(S(=O)(=O)N2CCN(C(=O)Cc3ccc(F)cc3)CC2)c1C(=O)O | 27.5
12 | COc1ccc(N2CC(NS(=O)(=O)c3cccnc3)CC2=O)cc1 (centres unmarked) | 20.1
13 | O=C(Nc1cc2c3c(c1)CC(=O)N3CCC2)c1ccc(Cl)cc1 | -42.2
14 | CC(=O)NS(=O)(=O)c1ccc(NC(=O)c2ccc(NC(=O)c3cccs3)cc2)cc1 | 2.48
15 | CCCC(=O)NC(Oc1ccccc1Cl)C(Cl)(Cl)Cl (centres unmarked) | -5.26
16 | Cc1ccc(NS(=O)(=O)c2ccc(Cl)s2)nc1 | 18.8
17 | O=C(/C=C/c1ccc([N+](=O)[O-])s1)N1CCN(c2ccccc2)CC1 | -37
18 | Cc1ccc(N=C2NC(=O)C(CO)(CO)S2)cc1 | 16.1
19 | Cc1ccc(NC(=O)[C@@H](C)NC(=O)[C@@H]2Cc3ccccc3CN2)cc1 | -14.9
20 | CCc1ccccc1NC(=O)NCc1ccc2c(c1)OCO2 | 22.9
21 | CCOC(=O)C(=CNc1ccc(C(O)(C(=O)OCC)C(F)(F)F)cc1C)C(=O)OCC (centres unmarked) | -10.3
22 | CC(C)(C)C(=O)Nc1ccc(N2CCN(S(C)(=O)=O)CC2)cc1 | 13.2

Row | Compound | hERG current change (%, negative = inhibition) at 10uM [%]
23 | CS(=O)(=O)Nc1ccc(C(=O)CC(=O)Nc2ccc([N+](=O)[O-])cc2)cc1 | -60.7
24 | Cc1cc(C)nc(NS(=O)(=O)c2ccc(NC(=O)Nc3ccccc3)cc2)n1 | 29.4
25 | O=C(O)CCc1ccc(-c2ccc(Br)cc2)n1Cc1ccco1 | 9.31
26 | CC(=O)Cc1nsc(NC(=O)c2cccc(F)c2)n1 | 12.5
27 | COc1ccc2c(CCNC(=O)c3ccc([N+](=O)[O-])cc3)c[nH]c2c1 | 20.9
28 | COc1ccc(C(CNC(=O)c2ccc(-c3ccccc3Cl)o2)N2CCOCC2)cc1 (centres unmarked) | -23.7
29 | CC(C)Cc1nc2sc3c(SCC(N)=O)ncnc3c2c2c1CCC2 | 19.7
30 | COc1cc(C(=O)N2CCN(c3ccc(C)cc3C)CC2)cc(OC)c1OC | -19.7
31 | N=C1C(c2nc3ccccc3s2)=C(O)CN1c1ccccc1 | 0.995
32 | O=C(Nc1ccc(F)cc1F)Nc1ccc(F)cc1F | 11.2
33 | O=C(NP(=O)(N1CCCC1)N1CCCC1)C1=C(N2CCOCC2)/C(=C/c2cccc([N+](=O)[O-])c2)CC1 | -26.1
34 | COc1cccc(-c2cc(=O)c3cc(NC(C)=O)ccc3[nH]2)c1 | 1.04
35 | COCCNc1nc(-c2cc(-c3ccccc3)on2)cc(C(C)C)n1 | -8.35
36 | Cc1ccc(S(=O)(=O)N/N=C/c2ccc(C(=O)O)cc2)cc1 | 15.2
37 | COc1ccc(C(=O)Nc2c(N)nc(SCC(=O)Nc3ccc(NC(C)=O)cc3)[nH]c2=O)cc1OC | 29.2
38 | Oc1ccccc1C1=NCCNC(C(F)(F)C(F)F)=C1 | -36.1
39 | O=C(c1cncc(Br)c1)N1CCN(S(=O)(=O)c2ccccc2C(F)(F)F)CC1 | -17.6
40 | CCOC(=O)N1CCN(C(=O)c2ccc3c(c2)NC(=O)C(N2CCOCC2)S3)CC1 (centres unmarked) | -4.6
41 | COC(=O)c1ccc(Nc2nc(C)cc(C)n2)cc1 | 10.9
42 | COc1ccc(-c2oc(=O)c3cc(OC)c(OC)cc3c2/C=C/c2cccc([N+](=O)[O-])c2)cc1 | 2.12
43 | CC(=O)Nc1c(O)nc(SCC(=O)Nc2ccc(C(C)=O)cc2)[nH]c1=O | 6.27
44 | CC1CCCCC1NC(=O)c1cc2c(s1)CS(=O)(=O)C2 (centres unmarked) | -6.74

Row | Compound | hERG current change (%, negative = inhibition) at 10uM [%]
45 | CCCc1noc(-c2cccc([N+](=O)[O-])c2)n1 | 11.5
46 | Cl.N=c1n(CCN2CCCCC2)c2ccccc2n1CC(O)COc1ccccc1 (centres unmarked) | -68.2
47 | CCCN(C(=O)C1=COCCO1)c1c(N)n(Cc2ccccc2)c(=O)[nH]c1=O | 16.2
48 | CCOC(=O)C1CCN(C(=O)c2ccccc2CCc2ccccc2)CC1 | -8.95
49 | CCn1cc(C(=O)NCC(OC)OC)c(=O)c2cc(S(=O)(=O)N3CCCC3)ccc21 | 10.3
50 | COCCNC(=O)Cn1cnc2ccc(S(=O)(=O)N3CCC(C)CC3)cc2c1=O | -15.1
51 | CNC(=S)NNC(=O)c1cccn(Cc2ccccc2)c1=O | 19
52 | O=C(CNC(=O)C(c1ccccc1)c1ccccc1)OCc1ccccc1 | 18.1
53 | COc1cc(/C=C2\C(=O)ON=C2c2ccccc2)cc(Br)c1O | -3.19
54 | C#CCNC(=O)C1=C[C@H](c2coc3ccccc3c2=O)C[C@H](OCCCCO)O1 | -45
55 | CC(CNC(=O)CCc1nnc(CCC2CCCCC2)o1)c1ccccc1 (centres unmarked) | -10.3
56 | CC(C)C(=O)Nc1ccc(NC(=O)c2ccccn2)cn1 | 7.61
57 | O=c1c2ccccc2cnn1Cc1cccc(Br)c1 | 3.05
58 | Cn1c(-c2ccccc2)cnc1SCC(=O)NCc1ccco1 | 0.977
59 | CC1CCC(NC(=O)C2CCN(C(=O)Nc3ccccc3)CC2)CC1 (centres unmarked) | 11.9
60 | COc1ccc2c(c1OC)C(=O)OC2c1c(O)nc(SC)n(-c2ccccc2)c1=O (centres unmarked) | -2.74
61 | CCOC(=O)C1CCN(/C=C2/C(=O)NC(=S)N(c3cccc(OC)c3)C2=O)CC1 | 19.4
62 | CC(O)Cc1cn([C@@H](CCCCNC(=O)OC(C)(C)C)C(=O)N2CCN(C(=O)OC(C)(C)C)CC2)nn1 (some centres unmarked) | 8.15
63 | O=S(=O)(c1cccc(S(=O)(=O)N2CCOCC2)c1)N1CCCCCC1 | 1.86
64 | Cc1ccc(C)n1-c1cc(S(=O)(=O)N2CCOCC2)ccc1N1CCCC1 | 12.9
65 | Nc1c(C(=O)N/N=C/c2ccc(Cl)cc2)cnn1-c1ccccc1 | 12.9
66 | COCC(C)NS(=O)(=O)c1ccc(C(=O)NC(Cc2ccccc2)c2ccccc2)cc1 (centres unmarked) | -30.6

Row | Compound | hERG current change (%, negative = inhibition) at 10uM [%]
67 | Nc1[nH]c(N=NC(=O)c2ccc(F)cc2)c2ccccc12 | 3.71
68 | O=C(O)CC1c2ccccc2CCN1S(=O)(=O)c1cccs1 (centres unmarked) | 14
69 | COc1ccc(N(CC(=O)NCCSCc2ccco2)S(=O)(=O)c2ccccc2)cc1OC | -24.1
70 | CC(C)Oc1ccc(S(=O)(=O)N2CCOCC2)cc1NC(=O)C1CCCC1 | -2.42
71 | CC1Cc2cc(S(=O)(=O)N3CCN(c4ccccc4F)CC3)ccc2N1C(=O)C1CC1 (centres unmarked) | 16.9
72 | O=C(CSc1nnc(NC2CCCCC2)s1)NN1C(=O)NC2(CCCCC2)C1=O | 8.23
73 | CCOc1ccc(CCNC(=O)CCn2ccc3cc(S(=O)(=O)N4CCCC4)ccc32)cc1 | -25.4
74 | Cc1cc([N+](=O)[O-])nn1CCCC(=O)Nc1sc2c(c1C(N)=O)CCCC2 | -6.34
75 | CCC(CC)C(=O)N1CC(=O)Nc2ccc(Br)cc2C1c1ccccc1 (centres unmarked) | -73.5
76 | CCCOC(=S)Nc1ccccc1 | 6.18
77 | O=C(Nc1cccnc1)OC1CCCC1 | 34.1
78 | COc1ccc2[nH]c(=O)c(CN(C(=O)c3cccnc3)c3ccccc3C)cc2c1 | 3.25
79 | COc1ccc(C(=O)Nc2ccc(Cc3ccncc3)cc2)cc1Br | -3.93
80 | CCOc1ccc(N=C2NC(=O)C(CC(=O)Nc3ccc(OC)cc3)S2)cc1 (centres unmarked) | 16.8
81 | O=C(/C=C/c1ccc(Cl)cc1Cl)NCCSc1ccccc1 | 1.36
82 | Cc1ccc2cc(CCNC(=O)c3ccc(S(=O)(=O)N4CCOCC4)cc3)c(=O)[nH]c2c1C | 16
83 | COc1ccc(C(=O)/C=C/Nc2cc(C)on2)cc1 | 3.9
84 | CC(C)/C=C(/C(=O)c1ccc(Cl)cc1Cl)n1cncn1 | 20.6
85 | O=C(Nc1ccccc1Cl)c1ccc2nsnc2c1 | 5.5
86 | Cc1cc(-c2ccccc2)n2ncc(C#N)c2n1 | -13.5
